Inconclusive means that the source gave no clear call. Such entries were picked first, then a sample of the others. For part of these data: No potency is given beside an inconclusive call; the fits are too rough. The source made the active and inactive calls. Unless noted, calls follow the shape of the dose curve; as a rule, active = well fitted curve in the direction sought with a large enough effect; inconclusive = small, poorly fitted or top-dose-only effect, or another doubt; inactive = no such curve, though single readings can be large; an effect the other way counts as inactive or inconclusive.
How the values were obtained:
[1] = Cytometry Cell-Based qHTS for Inhibitors of the mTORC1 Signaling Pathway in MEF cells (AID 2668); also: potency is read from the fitted curve at half-maximal effect
Procedure, shortened: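 Read-out: phospho-rpS6 Ser235/236 immunofluorescence normalized to propidium iodide intensity, scored as % active cells against a rapamycin (7.5 nM) threshold. Cells: Tsc2-/-, p53-/- MEFs stably expressing WT Tsc2, compound-treated 24 hrs at 37 degree Celsius.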

[2] = target: ATP-dependent 6-phosphofructokinase (Trypanosoma brucei brucei) (UniProt O15648); assay: qHTS Validation Assay to Find Inhibitors of T. brucei phosphofructokinase (AID 485368); also: potency is read from the fitted curve at half-maximal effect
Procedure, shortened: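 Activity was read as ADP production by luminescence (ADP-Glo) after 45 min at room temperature. The enzyme was 1.25nM PFK in 0.1M TEA pH 8.0 with 0.5 mM F6P, 0.1mM ATP and 5 mM MgCl2. Compounds were titrated up to 57 uM and % activity normalized to no-enzyme and full-enzyme controls.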

[3] = Quantitative high throughput screen for delayed death inhibitors of the malarial parasite plastid, 96 hour incubation (AID 488745); also: nearly all actives have a fitted effect of over 70% in size; also: potency is read from the fitted curve at half-maximal effect
Procedure, shortened: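 Luciferase-expressing P. falciparum in erythrocytes (2% hematocrit, 0.1% parasitemia) incubated with compound for 96 h at 37 C, 5% CO2, in RPMI 1640 with 0.5% Albumax. Growth inhibition read as decreased luminescence.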

[4] = Quantitative high throughput screen for delayed death inhibitors of the malarial parasite plastid, 48 hour incubation (AID 488752); also: nearly all actives have a fitted effect of over 65% in size; also: potency is read from the fitted curve at half-maximal effect
Procedure, shortened: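 Erythrocytes infected with firefly luciferase-expressing P. falciparum (2% hematocrit, 0.1% parasitemia) cultured with compound for 48 h at 37 C, 5% CO2, in RPMI 1640/0.5% Albumax. Growth inhibition read as loss of luminescence.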

[5] = Validation screen for small molecules that induce DNA re-replication in MCF 10A normal breast cells (AID 463097); also: nearly all actives have a fitted effect of over 60% in size; also: potency is read from the fitted curve at half-maximal effect
Procedure, shortened: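 250 MCF 10A cells/well; compound pin-transferred; 48 hr, 37 C, 5% CO2; Hoechst 40 min; imaged 405/500-530 nm. Hits = more high-intensity nuclei.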

[6] = target: Ubiquitin carboxyl-terminal hydrolase 2 (Homo sapiens) (UniProt O75604); assay: qHTS Validation Assay for Inhibitors of Ubiquitin-specific Protease USP2a Using CHOP2 as the Reporter (AID 463106); also: potency is read from the fitted curve at half-maximal effect
Procedure, shortened: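 USP2 core (10nM final) was preincubated with compound for 30min at RT in 20mM Tris-HCl pH 8.0, 2mM CaCl2, 2mM beta-mercaptoethanol, 0.05% CHAPS. Ub-CHOP2 and reporter substrate (25nM each) were added, and fluorescence (Ex 485/Em 531nm) was read after 60min.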

[7] = target: DNA polymerase III PolC-type (Bacillus subtilis (strain 168)) (UniProt P13267); assay: qHTS Validation Assay for the Inhibitors of DNA Replication in Gram-Positive Bacteria (AID 485295); also: potency is read from the fitted curve at half-maximal effect
Procedure, shortened: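 PicoGreen fluorescence (ex 480–485/em 535–540 nm) reports dsDNA synthesized on ssM13Gori template with dNTPs/NTPs. Enzyme: holoenzyme rebuilt from purified PolC, beta subunit, SSB and primase. Compound preincubated before substrate addition; RT throughout.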

[8] = target: Thioredoxin reductase 1, cytoplasmic (Rattus norvegicus) (UniProt O89049); assay: qHTS Assay for Substrates of Mammalian Selenoprotein Thioredoxin Reductase 1 (TrxR1) (AID 488772);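 also: NADPH fluorescence in the first read after selenite addition and not the 8 min delta; potency is read from the fitted curve at half-maximal effect; a drop in NADPH fluorescence below the no-compound background marks a TrxR1 substrate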
Procedure, shortened: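 Quantitative HTS in Tris-HCl buffer at pH 7.5 with EDTA and Tween-20, using rat TrxR1, 400 uM NADPH and 400 uM selenite (final). A fall in initial NADPH fluorescence relative to background marked substrate behaviour.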

[9] = target: Flap endonuclease 1 (Homo sapiens) (UniProt P39748); assay: qHTS Validation Assay for the Inhibitors of Human Flap endonuclease 1 (FEN1) (AID 488816); also: potency is read from the fitted curve at half-maximal effect
Procedure, shortened: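 FEN1, dispensed as a 10 nM reagent, was preincubated with pin-transferred compounds for 15 min at room temperature before substrate was added (50 nM final). Plates were read at 0 and 15 min, and a four-parameter Hill equation was fitted to the concentration-response data.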

[10] = target: Thioredoxin reductase 1, cytoplasmic (Rattus norvegicus) (UniProt O89049); assay: qHTS Assay for Inhibitors of Mammalian Selenoprotein Thioredoxin Reductase 1 (TrxR1) (AID 488773); details: Potency: inhibition; also: potency is read from the fitted curve at half-maximal effect; nearly all actives have a fitted effect of over 40% in size
Procedure, shortened: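 Steps: enzyme (90 nM) plus NADPH (400 uM final), 5 min at ~22 deg C; compound added, 15 min; selenite (400 uM final) added; fluorescence followed for 8 min. Concentration-response curves derived from the normalized delta values.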

[11] = target: M-phase phosphoprotein 8 (Homo sapiens) (UniProt Q99549); assay: qHTS Validation Assay for Inhibitors for MPP8 Chromodomain Interactions with Methylated Histone Tails (AID 488949); also: potency is read from the fitted curve at half-maximal effect; nearly all actives have a fitted effect of over 55% in size
Procedure, shortened: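 AlphaScreen read-out: streptavidin donor and nickel chelate acceptor beads (final 10 ug/mL), 30 min in the dark at RT. Complex of 50 nM MPP8 and 50 nM b-H3(1-18)K9me3 peptide had been exposed to compounds for 30 min beforehand.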

[12] = High Content Imaging Cell-Based qHTS for Inhibitors of the mTORC1 Signaling Pathway in MEF Cells (AID 2667);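 also: Tsc2-/- p53-/- MEFs stably re-expressing wild-type Tsc2 exposed 24 h; plate controls were DMSO wells for no effect and rapamycin control wells for full effect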
Procedure, shortened: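 MEF (Tsc2-/-, p53-/-, WT Tsc2 re-expressed); cpd 24 h, 37 °C; PFA fix; Alexa-488 anti-p-rpS6 Ser235/236, PI, Hoechst; IN Cell imaging; Hoechst/Alexa-488 intensity ratio; % active cells, thresholds set from rapamycin and DMSO wells.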

[13] = target: Fructose-bisphosphate aldolase (Giardia intestinalis (strain ATCC 50803 / WB clone C6)) (UniProt A8B2U2); assay: qHTS Assay for Inhibitors of Fructose-1,6-bisphosphate Aldolase from Giardia Lamblia: Primary screen confirmation (AID 2787); details: purified Giardia aldolase enzyme activity; also: potency is read from the fitted curve at half-maximal effect; nearly all actives have a fitted effect of over 45% in size
Procedure, shortened: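 Confirmation of primary hits by qHTS up to 57.5 uM final compound. Enzyme at 40 nM with 30 uM ZnCl2, 10 min RT pre-incubation, then substrate/coupling/resorufin-forming detection mix for 20 min before fluorescence read at 525/598 nm.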

[14] = target: Fructose-bisphosphate aldolase A (Oryctolagus cuniculus) (UniProt P00883); assay: qHTS Assay for Inhibitors of Fructose-1,6-bisphosphate Aldolase from Giardia Lamblia: Rabbit FBPA Selectivity (AID 2794); details: Rabbit muscle FBPA enzyme inhibition, selectivity counter-screen; also: potency is read from the fitted curve at half-maximal effect; nearly all actives have a fitted effect of over 60% in size
Procedure, shortened: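 Rabbit Class I FBPA selectivity counterscreen, 1536-well qHTS: compounds at up to 57.5 uM final preincubated 10 min RT with coupling enzyme reagent, then substrate plus coupled enzymes and AmpLite Red added; 20 min RT, fluorescence read at 525/598 nm.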

[15] = qHTS Validation Assay to Find Inhibitors of Chronic Active B-Cell Receptor Signaling (AID 485345; active = well fitted curve in the direction sought with a large enough effect in the main read-out, with a control signal flat, not every such curve was filed as active; inconclusive = small, poorly fitted or top-dose-only effect, or effect the other way, or a change in a side signal; inactive = no such curve, though single readings can be large or run the other way;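 also: 0% = untreated basal cells and 100% = 10 µM MG-132 proteasome inhibitor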); details: ABC-DLBCL cells, chronic BCR signaling reporter; activity change: CBG luciferase, at 46.1 µM (top of the series)
Procedure, shortened: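 TMD8 ABC-DLBCL cells with dox-inducible green luciferase–IκBα fusion and red native luciferase; compounds 46 uM–3 nM, 4 h at 37C with doxycycline in 0.5% FBS IMDM. Green/red ratio normalized to basal and 10 uM MG-132.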
Tags tell the direction and shape of the fitted curve or compound fluorescence and quenching.

Chain of UniProt Q99549 (Q99549 whole entry, looked up): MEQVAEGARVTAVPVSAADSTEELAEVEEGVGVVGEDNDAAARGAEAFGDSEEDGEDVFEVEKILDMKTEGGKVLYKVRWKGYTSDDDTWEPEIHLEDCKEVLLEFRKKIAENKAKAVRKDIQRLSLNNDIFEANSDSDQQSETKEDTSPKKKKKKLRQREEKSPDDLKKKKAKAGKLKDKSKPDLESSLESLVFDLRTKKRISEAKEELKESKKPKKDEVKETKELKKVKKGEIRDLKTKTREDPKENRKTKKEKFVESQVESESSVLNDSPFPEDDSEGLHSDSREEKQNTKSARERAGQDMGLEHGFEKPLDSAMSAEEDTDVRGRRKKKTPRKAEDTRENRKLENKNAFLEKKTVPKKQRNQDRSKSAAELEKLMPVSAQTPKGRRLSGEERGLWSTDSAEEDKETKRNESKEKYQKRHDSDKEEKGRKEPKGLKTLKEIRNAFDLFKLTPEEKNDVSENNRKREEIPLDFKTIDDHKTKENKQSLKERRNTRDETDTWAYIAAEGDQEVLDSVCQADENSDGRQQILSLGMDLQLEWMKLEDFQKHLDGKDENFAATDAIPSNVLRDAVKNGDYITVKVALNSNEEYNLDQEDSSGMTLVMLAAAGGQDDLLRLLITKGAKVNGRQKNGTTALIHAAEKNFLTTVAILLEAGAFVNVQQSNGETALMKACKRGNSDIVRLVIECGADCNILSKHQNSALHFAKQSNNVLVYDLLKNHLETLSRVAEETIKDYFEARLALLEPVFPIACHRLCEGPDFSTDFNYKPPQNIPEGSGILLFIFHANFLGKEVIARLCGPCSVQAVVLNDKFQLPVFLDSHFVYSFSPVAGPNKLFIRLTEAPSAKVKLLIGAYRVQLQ
Chain of UniProt O15648 (O15648 whole entry, looked up): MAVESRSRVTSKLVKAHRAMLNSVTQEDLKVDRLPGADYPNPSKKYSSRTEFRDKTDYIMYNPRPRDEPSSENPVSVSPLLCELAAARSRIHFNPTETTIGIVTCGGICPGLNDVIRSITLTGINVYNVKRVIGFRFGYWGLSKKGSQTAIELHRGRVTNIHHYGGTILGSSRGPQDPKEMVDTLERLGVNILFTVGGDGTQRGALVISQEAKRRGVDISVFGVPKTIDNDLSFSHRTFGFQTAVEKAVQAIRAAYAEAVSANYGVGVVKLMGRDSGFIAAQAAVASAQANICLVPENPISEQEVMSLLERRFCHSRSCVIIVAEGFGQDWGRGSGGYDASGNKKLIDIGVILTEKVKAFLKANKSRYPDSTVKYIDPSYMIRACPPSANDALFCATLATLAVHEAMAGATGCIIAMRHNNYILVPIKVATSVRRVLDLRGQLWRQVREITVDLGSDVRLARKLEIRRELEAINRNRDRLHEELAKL
Chain of UniProt O89049 (O89049 whole entry, looked up): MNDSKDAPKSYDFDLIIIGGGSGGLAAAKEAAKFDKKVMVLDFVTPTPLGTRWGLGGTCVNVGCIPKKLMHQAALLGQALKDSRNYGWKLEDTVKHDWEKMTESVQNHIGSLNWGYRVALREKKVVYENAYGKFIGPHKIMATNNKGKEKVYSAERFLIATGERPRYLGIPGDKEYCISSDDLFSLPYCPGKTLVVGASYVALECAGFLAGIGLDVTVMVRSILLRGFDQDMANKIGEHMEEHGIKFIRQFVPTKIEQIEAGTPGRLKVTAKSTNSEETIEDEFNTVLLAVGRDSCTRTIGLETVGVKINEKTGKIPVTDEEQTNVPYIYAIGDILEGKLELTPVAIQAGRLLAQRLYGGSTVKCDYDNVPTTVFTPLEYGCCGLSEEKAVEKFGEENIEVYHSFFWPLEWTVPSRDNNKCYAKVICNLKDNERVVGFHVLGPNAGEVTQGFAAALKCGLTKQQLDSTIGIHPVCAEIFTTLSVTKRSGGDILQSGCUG
Chain of UniProt O75604 (O75604 whole entry, looked up): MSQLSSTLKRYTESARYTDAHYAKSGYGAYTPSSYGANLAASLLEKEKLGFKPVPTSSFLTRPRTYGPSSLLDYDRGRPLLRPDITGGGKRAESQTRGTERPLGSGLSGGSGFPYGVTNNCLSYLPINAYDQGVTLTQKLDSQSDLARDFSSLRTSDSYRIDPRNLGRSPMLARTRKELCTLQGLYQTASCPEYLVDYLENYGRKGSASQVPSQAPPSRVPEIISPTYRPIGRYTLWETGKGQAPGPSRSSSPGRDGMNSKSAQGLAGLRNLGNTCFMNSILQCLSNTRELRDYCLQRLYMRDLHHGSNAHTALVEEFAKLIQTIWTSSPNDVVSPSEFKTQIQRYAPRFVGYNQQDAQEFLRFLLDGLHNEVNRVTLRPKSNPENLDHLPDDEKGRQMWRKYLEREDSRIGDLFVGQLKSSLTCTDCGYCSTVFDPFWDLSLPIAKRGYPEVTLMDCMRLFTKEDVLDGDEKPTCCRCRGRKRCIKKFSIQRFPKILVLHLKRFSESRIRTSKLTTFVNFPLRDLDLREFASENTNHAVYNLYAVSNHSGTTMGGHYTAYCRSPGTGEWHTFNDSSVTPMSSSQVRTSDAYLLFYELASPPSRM
Chain of UniProt P13267 (P13267 whole entry, looked up): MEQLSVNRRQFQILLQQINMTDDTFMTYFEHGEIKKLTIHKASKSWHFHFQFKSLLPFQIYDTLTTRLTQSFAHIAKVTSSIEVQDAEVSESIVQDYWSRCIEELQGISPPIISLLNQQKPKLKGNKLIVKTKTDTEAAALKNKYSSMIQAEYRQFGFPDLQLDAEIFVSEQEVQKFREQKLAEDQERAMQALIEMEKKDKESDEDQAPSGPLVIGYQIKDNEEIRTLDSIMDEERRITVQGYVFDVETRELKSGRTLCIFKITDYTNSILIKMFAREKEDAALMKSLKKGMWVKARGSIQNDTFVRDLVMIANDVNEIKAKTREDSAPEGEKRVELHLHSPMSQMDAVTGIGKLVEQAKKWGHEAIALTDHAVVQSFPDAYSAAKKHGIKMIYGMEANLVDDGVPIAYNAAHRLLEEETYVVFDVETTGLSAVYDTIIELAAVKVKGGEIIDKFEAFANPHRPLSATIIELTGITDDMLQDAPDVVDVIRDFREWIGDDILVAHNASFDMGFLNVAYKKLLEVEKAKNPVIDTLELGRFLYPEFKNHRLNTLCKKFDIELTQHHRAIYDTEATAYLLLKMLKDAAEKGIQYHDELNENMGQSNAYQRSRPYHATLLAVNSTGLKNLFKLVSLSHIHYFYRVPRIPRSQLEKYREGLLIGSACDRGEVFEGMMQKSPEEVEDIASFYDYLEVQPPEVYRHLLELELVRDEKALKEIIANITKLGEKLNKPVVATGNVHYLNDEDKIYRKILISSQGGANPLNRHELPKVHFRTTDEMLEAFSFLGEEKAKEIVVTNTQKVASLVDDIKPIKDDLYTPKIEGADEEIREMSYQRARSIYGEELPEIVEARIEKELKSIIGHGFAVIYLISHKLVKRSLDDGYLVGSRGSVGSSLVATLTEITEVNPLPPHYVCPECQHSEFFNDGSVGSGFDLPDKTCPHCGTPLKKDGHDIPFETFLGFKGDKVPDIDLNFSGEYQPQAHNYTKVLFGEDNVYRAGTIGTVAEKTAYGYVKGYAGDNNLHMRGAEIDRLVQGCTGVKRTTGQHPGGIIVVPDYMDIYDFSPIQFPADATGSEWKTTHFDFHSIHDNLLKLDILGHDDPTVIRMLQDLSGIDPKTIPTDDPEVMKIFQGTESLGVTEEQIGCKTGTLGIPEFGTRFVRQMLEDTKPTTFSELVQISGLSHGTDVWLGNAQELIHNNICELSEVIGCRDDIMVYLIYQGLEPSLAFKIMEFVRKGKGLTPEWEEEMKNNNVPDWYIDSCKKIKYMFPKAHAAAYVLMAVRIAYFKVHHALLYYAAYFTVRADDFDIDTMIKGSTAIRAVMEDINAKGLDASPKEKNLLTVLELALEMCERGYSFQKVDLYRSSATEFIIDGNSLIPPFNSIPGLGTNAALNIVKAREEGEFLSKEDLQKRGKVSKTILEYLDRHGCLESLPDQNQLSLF
Chain of UniProt P00883 (P00883 whole entry, looked up): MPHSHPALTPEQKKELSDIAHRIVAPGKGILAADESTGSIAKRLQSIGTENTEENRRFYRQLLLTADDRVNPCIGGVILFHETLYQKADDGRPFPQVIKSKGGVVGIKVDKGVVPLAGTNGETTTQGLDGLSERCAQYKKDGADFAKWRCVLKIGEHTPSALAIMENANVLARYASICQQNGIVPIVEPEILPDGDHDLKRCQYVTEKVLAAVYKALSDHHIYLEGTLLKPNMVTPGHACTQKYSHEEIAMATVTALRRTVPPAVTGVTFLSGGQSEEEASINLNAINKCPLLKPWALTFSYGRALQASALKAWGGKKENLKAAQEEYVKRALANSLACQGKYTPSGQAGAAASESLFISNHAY
Chain of UniProt P39748 (P39748 whole entry, looked up): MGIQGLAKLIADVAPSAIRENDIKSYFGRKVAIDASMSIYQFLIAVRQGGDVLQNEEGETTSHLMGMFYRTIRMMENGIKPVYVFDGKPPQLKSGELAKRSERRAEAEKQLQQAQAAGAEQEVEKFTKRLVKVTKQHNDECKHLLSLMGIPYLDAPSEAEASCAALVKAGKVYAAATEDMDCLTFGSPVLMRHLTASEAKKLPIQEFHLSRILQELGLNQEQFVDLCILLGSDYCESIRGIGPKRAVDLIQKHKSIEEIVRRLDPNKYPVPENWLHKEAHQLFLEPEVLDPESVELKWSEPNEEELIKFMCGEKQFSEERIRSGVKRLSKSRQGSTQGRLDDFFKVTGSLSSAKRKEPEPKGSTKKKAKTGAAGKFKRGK
Chain of UniProt A8B2U2 (A8B2U2 whole entry, looked up): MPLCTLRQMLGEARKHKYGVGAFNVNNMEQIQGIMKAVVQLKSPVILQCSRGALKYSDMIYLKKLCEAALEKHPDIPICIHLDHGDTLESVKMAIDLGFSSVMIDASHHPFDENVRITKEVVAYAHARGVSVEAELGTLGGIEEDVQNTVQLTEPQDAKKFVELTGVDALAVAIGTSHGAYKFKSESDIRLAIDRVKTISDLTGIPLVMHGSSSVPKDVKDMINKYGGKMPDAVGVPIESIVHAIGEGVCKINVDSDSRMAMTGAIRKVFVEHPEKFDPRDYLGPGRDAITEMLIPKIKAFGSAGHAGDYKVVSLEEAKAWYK

In the case of `O=c1c2ccccc2nc2n1CCc1c-2[nH]c2ccccc12`, the Potency [1] is reported as inconclusive [falling, partial curve, poor fit], the Potency [2] is reported as “inactive” and the Potency [3] is reported as inconclusive [activator, partial curve]. For the same molecule, the Potency [4] was inconclusive [activator, full curve].
With `CC(C)c1ccc2c(c1)c(SC(C)(C)C)c(CC(C)(C)C(=O)O)n2Cc1ccc(Cl)cc1` the Potency [1] was inconclusive [falling, single point], the Potency [5] was active: 10 µM and the Potency [6] was inconclusive [falling, single point]. For the same molecule, the Potency [7] was active: 21.2 µM, the Potency [2] was “inactive” and the Potency [4] was active: 13.1 µM. For the same molecule, the Potency [8] was inconclusive [inhibitor, single point] and the Potency [9] was inconclusive [inhibitor, single point].
With `CC(C)(C)c1onc(OCP(=O)(O)O)c1CC(N)C(=O)O` (stereo not drawn) the Potency [5] was “inactive”.
For `Cc1c(OCC(F)(F)F)ccnc1CS(=O)c1nc2ccccc2[nH]1` (stereo not drawn), the Potency [5] was “inactive”.
In the case of `CC1(C)CCC2=C(O1)c1ccccc1C(=O)C2=O`, the Potency [1] is reported as inconclusive [falling, single point], the Potency [5] is reported as inconclusive [activator, single point] and the Potency [2] is reported as inconclusive [activator, single point]. The Potency [3] was inconclusive [inhibitor, single point], the Potency [4] was inconclusive [inhibitor, single point] and the Potency [8] was active: 18.9 µM. The Potency [10] was inconclusive [inhibitor, single point] and the Potency [11] was inconclusive [inhibitor, single point].
For `CN1CCc2cccc3c2C1Cc1ccc(O)c(O)c1-3` (stereo not drawn), the Potency [12] was “inactive”, the Potency [13] was inconclusive [inhibitor, full curve, poor fit] and the Potency [14] was inconclusive [inhibitor, partial curve]. The Potency [5] was inconclusive [activator, single point] and the Potency [2] was active: 12 µM.
In the case of `O=C1NC(=O)/C(=C/c2ccc(-c3ccc(F)cc3O)o2)S1`, the Potency [1] is reported as “inactive”, the Potency [2] is reported as inconclusive [activator, single point] and the Potency [10] is reported as inconclusive [inhibitor, single point]. For the same molecule, the Potency [11] was inconclusive [inhibitor, single point].
For `CC(=O)NCCc1c[nH]c2ccc(O)cc12`, the Potency [1] was “inactive” and the Potency [4] was inconclusive [inhibitor, single point].
For `O=C1c2c(O)ccc(O)c2C(=O)c2c(NCCNCCO)ccc(NCCNCCO)c21`, the Potency [1] was inconclusive [falling, full curve, poor fit], the Potency [6] was inconclusive [falling, partial curve] and the activity change [15] was inconclusive: 39.6%. The Potency [2] was inconclusive [activator, full curve].
In the case of `Nc1ccc(N2C(=O)c3ccccc3C2=O)c(Cl)c1`, the Potency [12] is reported as “inactive”, the Potency [15] is reported as “inactive” and the Potency [2] is reported as inconclusive [falling, single point]. The Potency [4] was “inactive”.
For `Nc1ncnc2c1ncn2[C@@H]1O[C@H](COP(=O)(O)CP(=O)(O)OP(=O)(O)O)[C@@H](O)[C@H]1O`, the Potency [1] was “inactive” and the Potency [2] was “inactive”.
In the case of `Cc1cc(C)c(/C=C2\C(=O)Nc3ccccc32)[nH]1`, the Potency [1] is reported as inconclusive [falling, full curve, poor fit], the Potency [5] is reported as inconclusive [activator, single point] and the Potency [6] is reported as inconclusive [fluorescent, partial curve]. The Potency [4] was inconclusive [activator, partial curve, poor fit].
For `N=C(N)SCCc1cnc[nH]1`, the Potency [12] was “inactive”, the Potency [2] was “inactive” and the Potency [3] was “inactive”.
For `O=C(/C=C/c1ccc(O)cc1)c1ccc(O)cc1O`, the Potency [1] was inconclusive [falling, single point], the Potency [5] was inconclusive [activator, single point] and the Potency [2] was inconclusive [falling, partial curve]. For the same molecule, the Potency [3] was inconclusive [activator, partial curve, poor fit], the Potency [4] was inconclusive [activator, partial curve] and the Potency [10] was inconclusive [inhibitor, partial curve]. For the same molecule, the Potency [11] was inconclusive [inhibitor, full curve].
In the case of `CC(C)NC[C@@H](O)c1ccc(O)c(O)c1`, the Potency [12] is reported as “inactive” and the Potency [2] is reported as inconclusive [falling, single point].
For `Nc1ccc(-c2ccc3ccccc3n2)cc1`, the Potency [1] was “inactive”, the Potency [5] was active: 12.6 µM and the Potency [2] was inconclusive [activator, single point]. For the same molecule, the Potency [4] was inconclusive [activator, full curve].
